# Reference: PubChem BioAssay AID686970 (National Center for Advancing Translational Sciences (NCATS), 2013)
# The campaign covered roughly 360,000 compounds. About 6,000 (1.7%) were called active. The inconclusive results got no clear call from the source; some entries with a clear call stand among them for comparison. Calls follow the shape of the dose curve; as a rule, active = well fitted cell-killing curve with a large enough effect; inconclusive = small, poorly fitted or top-dose-only effect, or effect the other way; inactive = flat fitted curve, though single readings scatter. Potencies of inconclusive entries are left out as doubtful fits.
# Test: qHTS for induction of synthetic lethality in tumor cells producing 2HG: qHTS for the HT-1080-NT fibrosarcoma cell line;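 also: NT is the 2HG producing partner of a matched IDH1 knockdown line; nearly all actives have a fitted effect of over 55% in size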;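 as to activity, negative = less viability: 0% = DMSO-treated cells and -100% = media-only wells without cells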
# Settings: HT-1080-NT fibrosarcoma viability, CellTiter-Glo ATP luminescence, 48 h; activity, negative = less viability: at 46.1 µM (top of the series) unless noted
# Summary of the method: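 Viability by CellTiter-Glo luminescence after 48 h compound exposure at 37C of HT-1080-NT cells (750/well, RPMI, 5% FBS). % activity scaled between DMSO wells and medium-only wells, then curve-fitted and categorized by curve class.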
# Potency is read from the fitted curve at half-maximal effect; tags tell the direction and shape of the fitted curve.
SMILES,"activity, negative = less viability",Potency
COc1ccc(CCN2CCCC(CN(C)Cc3cc(OC)ccc3OC)C2)cc1 (stereo not given),inconclusive: -30.5% [cytotoxic],–
N=c1n(CCN2CCCCC2)c2ccccc2n1CC(=O)c1cccs1,–,"inconclusive [cytotoxic, partial curve]"
Cc1ccc(Cn2ccc(NC(=O)c3noc4c3CCc3ccccc3-4)n2)cc1,inconclusive: 33.3%,–
Cc1cc(C)c2cc(C#N)c(NCCCNC(=O)CCC(=O)O)nc2c1,–,inactive
CC(Nc1c([N+](=O)[O-])c(=O)oc2ccccc12)C(Cl)c1ccccc1 (stereo not given),–,"inconclusive [cytotoxic, single point]"
CNC[C@H](CC1CCCCC1)NC[C@H](CO)NCC1(c2ccccc2)CC1,–,"inconclusive [cytotoxic, single point]"
CCN1CCN(c2ccc(S(=O)(=O)N3CCCCC3)cc2NC(=O)/C=C/c2ccc([N+](=O)[O-])cc2)CC1,–,"inconclusive [cytotoxic, single point]"
O=C(O)c1ccccc1C(=O)Nc1cc(C(F)(F)F)ccc1N1CCCC1,inconclusive: -18.7% [cytotoxic],–
CS(=O)(=O)Nc1cccc(NC(=O)C2Cc3c(-c4ccccc4)ccnc3O2)c1 (stereo not given),–,active: 2.31 µM
O=[N+]([O-])c1ccc(O)c(/C=N/NC(=S)Nc2ccc(Cl)cc2Cl)c1,inconclusive: -44.5%,–
COc1ccccc1NC(=O)Cn1nnc(-c2ccccc2NC(=O)c2cc3ccccc3oc2=O)n1,–,"inconclusive [cytotoxic, single point]"
CC(C)c1ccc(NC(=S)NC2CCCCCC2)cc1,–,inactive
N#Cc1cc2c(nc1S(=O)(=O)Cc1ccccc1)CCCC2,–,"inconclusive [rising, partial curve]"
Cc1cc(NCCCn2ccnc2)n2nc(C)c(-c3ccccc3)c2n1,–,"inconclusive [cytotoxic, single point]"
O=C1C(=Cc2cn(-c3ccccc3)nc2-c2ccc(OCc3ccccc3F)cc2)SC(=S)N1CCS(=O)(=O)O,–,"inconclusive [cytotoxic, partial curve]"
COc1ccc(CNC(=O)C[C@H]2C(=O)N(Cc3ccccc3)C[C@@H]2Cc2ccccc2)cc1,–,inactive
COc1ccc([C@H]2CC(=O)c3c(O)cc(O)cc3O2)cc1O,–,"inconclusive [rising, partial curve]"
COc1cc2c(cc1OC)CN(C(=O)CCOc1ccccc1C)CC2,–,"inconclusive [cytotoxic, single point]"
Oc1ccc(C=NNC(=S)Nc2ccc(F)cc2)c(O)c1,–,"inconclusive [cytotoxic, partial curve, poor fit]"
COc1ccc(NC(=S)NC(NC(=O)c2ccc(Cl)cc2Cl)C(Cl)(Cl)Cl)c([N+](=O)[O-])c1 (stereo not given),–,"inconclusive [cytotoxic, single point]"
CC(C)(C)c1ccc(/C=C(\C#N)C(=O)NC2CC2)cc1,–,"inconclusive [cytotoxic, single point]"
CCN(CC)CCN(C(=O)c1cc2ccccc2cc1OC)c1nc2ccc(F)cc2s1,–,active: 18.4 µM

SMILES,"activity, negative = less viability",Potency
Cc1nn(-c2ccccc2)c(C)c1-c1cc(C(=O)N/N=C/c2ccc(O)cc2)[nH]n1,–,"inconclusive [cytotoxic, full curve]"
CCCCCCn1c(N2CCCC2)nc2c1c(=O)n(C)c(=O)n2C,–,inactive
COc1cc([N+](=O)[O-])cc(/C=N\NC(=O)C2COc3ccccc3O2)c1O (stereo not given),–,"inconclusive [cytotoxic, single point]"
FC(F)(F)c1ccc(NC(=S)NCc2ccccc2)cc1,–,"inconclusive [cytotoxic, single point]"
CC/C(=N\Nc1ccc([N+](=O)[O-])cc1[N+](=O)[O-])c1ccc(O)cc1,–,"inconclusive [cytotoxic, partial curve]"
Cc1ccc(Cc2c(-c3ccco3)nc3c(C)cc(Br)cn23)cc1,–,active: 25.9 µM
COc1cccc(NS(=O)(=O)NC(=O)c2cn(C)c3ccccc23)c1,–,"inconclusive [cytotoxic, single point]"
COc1cccc(NC(=O)C2(C)CCCN(C(C)C)C2)c1 (stereo not given),–,"inconclusive [rising, partial curve]"
c1ccc2c(-c3nc4ccccc4[nH]3)cccc2c1,–,"inconclusive [cytotoxic, single point]"
CCOc1ccccc1NC(=O)c1sc2nc(C)nc(N3CCOCC3)c2c1C,–,inactive
CC(C)N(C)c1ncnc2c1ncn2[C@H]1CN(CCc2ccccc2)C[C@@H](CO)O1,–,"inconclusive [rising, single point]"
CCOc1ccc(/C=C/C2=Cc3c(sc(NC(=O)CSc4n[nH]c(N)n4)c3C#N)C(C)(C)C2)cc1,–,"inconclusive [cytotoxic, single point]"
CCN1CCN(C(=O)C2CCN(Cc3cc(Cl)ccc3O)CC2)CC1,–,"inconclusive [cytotoxic, single point]"
CCC(=O)N1CCN(c2nc(-c3ccccc3)c3c(c2C#N)CCCC3)CC1,–,"inconclusive [cytotoxic, single point]"
CCc1nnc(NC(=O)COc2ccc3c(c2)OCO3)s1,–,"inconclusive [cytotoxic, full curve]"
Cc1cccc(-c2ccc3[nH]c4c(c3c2)CCN2C[C@@H]([C@H](C)O)[C@@H](N(C)C(=O)Nc3ccc(F)cc3)C[C@@H]42)c1,–,active: 20.6 µM
Oc1cccc(C=Nc2cccc3ccccc23)c1O,–,active: 18.4 µM
Cc1ccc(Nc2c(-c3ccccn3)nc3cc(C)ccn23)cc1,–,active: 5.8 µM
CN(Cc1cnc2nc(N)nc(N)c2n1)c1ccc(C(=O)NC(CCC(=O)O)C(=O)O)c2ccccc12 (stereo not given),–,"inconclusive [cytotoxic, full curve]"
O=C(Nc1ccc2c(c1)OCCO2)C(c1ccccc1F)n1c(=O)c(-c2cc3ccccc3[nH]2)nc2ccccc21 (stereo not given),–,"inconclusive [cytotoxic, single point]"
CCCOc1ccc(N2C(=O)CC(N(CCc3ccc(OC)cc3)C(=O)c3ccccc3)C2=O)cc1 (stereo not given),–,"inconclusive [cytotoxic, single point]"
COc1cc(C(=O)NNC(=S)NC(=O)c2ccc3c(c2)OCO3)cc(OC)c1OC,–,"inconclusive [cytotoxic, partial curve, poor fit]"

SMILES,"activity, negative = less viability",Potency
CCCCC(CC)COC(=O)c1ccc(N(C)C)cc1 (stereo not given),inconclusive: 22.6%,–
COC(=O)c1ccc(Oc2cc(C)nc(SC)n2)cc1,–,"inconclusive [cytotoxic, full curve, poor fit]"
O=C(NCCc1ccccc1)c1cc(-c2ccncc2)nc2ccc(S(=O)(=O)N3CCOCC3)cc12,inconclusive: -11.4% [cytotoxic],–
O=C(Nc1ccc2c(c1)OCCO2)c1ccc(Br)cc1,–,"inconclusive [cytotoxic, single point]"
CCCn1c(NC(=O)c2cccc(S(=O)(=O)N3CCCC3)c2)nc2ccccc21,–,"inconclusive [cytotoxic, partial curve]"
O=C(Nc1ccc(CN2CCOCC2)cc1)c1cc(Br)ccc1Cl,–,inactive
CCOC(=O)c1ccc(NC(=O)CCc2nnc3ccc(N4CCN(C)CC4)nn23)cc1,–,"inconclusive [cytotoxic, single point]"
O=C(c1cccs1)N(Cc1nc2sc3c(c2c(=O)[nH]1)CCCC3)C1CCCC1,–,"inconclusive [cytotoxic, partial curve, poor fit]"
COc1c(C)cc(C(O)c2ncc(-c3cccc4ccccc34)[nH]2)cc1C (stereo not given),–,"inconclusive [cytotoxic, single point]"
COc1ccccc1N1CCN(c2ncnc3n[nH]c(Br)c23)CC1,–,"inconclusive [cytotoxic, single point]"
COc1ccc(C(=O)NNC(=S)NC(=O)c2ccc(OC)cc2)cc1,–,"inconclusive [cytotoxic, partial curve]"
COc1ccccc1-c1cc(C(=O)NN)[nH]n1,–,active: 20.6 µM
Cc1ccc(OCC(=O)c2cc(C)n(Cc3cccs3)c2C)c([N+](=O)[O-])n1,–,"inconclusive [cytotoxic, partial curve]"
COc1ccc2nc(SCc3nc(N)nc(Nc4ccccc4)n3)[nH]c2c1,–,inactive
Cc1cc(C)cc(C(O)c2ncc(-c3ccccc3C)[nH]2)c1 (stereo not given),–,"inconclusive [cytotoxic, partial curve, poor fit]"
CN(C)C(CNC(=O)c1cc(S(=O)(=O)N(C)c2ccccc2)ccc1Cl)c1ccccc1 (stereo not given),–,inactive
FC(F)(F)c1ccccc1Cc1c(-c2ccco2)nc2ccc(Cl)cn12,–,"inconclusive [cytotoxic, single point]"
COc1cccc(CNC(=O)CN2C(=O)CSc3ccc(S(=O)(=O)N4CCCCC4)cc32)c1,–,inactive
Cc1ccccc1N1C(=O)c2sc3nc4c(c(=O)n3c2C1=O)CCC4,–,"inconclusive [cytotoxic, single point]"
Cc1nc2c(OCc3ccc(Cl)cc3Cl)cccn2c1N(C)Cc1cccs1,–,"inconclusive [cytotoxic, single point]"
Clc1ccc(SCc2cc(-c3ccccc3)on2)cc1,–,"inconclusive [rising, partial curve]"
